Laboratory results reported in the antibiotic and cytotoxicity screens of Wong et al. (2023).
The other results are listed elsewhere or left out.

Test system: HSkMC (human skeletal muscle cells)
Experiment: cytotoxicity call (relative viability < 0.9)
Details: 10 µM

SMILES	cytotoxicity call
COc1ccc(CN(C)C[C@H]2OCCCC[C@@H](C)Oc3ccc(NS(=O)(=O)c4c(C)noc4C)cc3C(=O)N([C@H](C)CO)C[C@H]2C)cc1	inactive
CCS(=O)(=O)Nc1ccc2c(c1)C(=O)N(C)[C@@H]1CC[C@@H](CC(=O)NCCCN3CCOCC3)O[C@H]1CO2	inactive
N=C(N)SCc1ccc(B(O)O)cc1	inactive
CC1(C)SC2C(NC(=O)C(C(=O)[O-])c3ccccc3)C(=O)N2C1C(=O)[O-].[Na+].[Na+] (stereo not given)	inactive
Cc1noc(C)c1S(=O)(=O)Nc1ccc2c(c1)C(=O)N([C@H](C)CO)C[C@H](C)[C@H](CN(C)Cc1ccc(C(F)(F)F)cc1)OCCCC[C@H](C)O2	inactive
C[C@H](CO)N1C[C@H](C)[C@@H](CN(C)CC2CCCCC2)Oc2c(NC(=O)CCCCCC(=O)Nc3ccccc3N)cccc2C1=O	inactive
C[C@H](CO)N1C[C@H](C)[C@H](CN(C)Cc2ccc(C(F)(F)F)cc2)Oc2ccc(NC(=O)Nc3ccc(C(F)(F)F)cc3)cc2C1=O	active
NNc1ccc2nncn2n1	inactive
COC(=O)c1ccc2c(c1)no[n+]2[O-]	inactive
COc1ccc(CN(C)C[C@@H]2Oc3c(NC(=O)c4cc(C)nn4C)cccc3C(=O)N([C@@H](C)CO)C[C@H]2C)cc1	inactive
COC1CC(OC2C(C)=CCC3CC(CC4(CCC(C)C(C5CCCCC5)O4)O3)OC(=O)C3C=C(C)C(=NO)C4OCC(=CC=CC2C)C34O)OC(C)C1O (stereo not given)	active
CCCNC(=O)N(C)C[C@H]1Oc2cc(-c3ccc(C)cc3)ccc2S(=O)(=O)N([C@H](C)CO)C[C@@H]1C	inactive
CNC[C@@H]1OCCCC[C@H](C)Oc2ccc(NS(=O)(=O)c3c(C)noc3C)cc2C(=O)N([C@@H](C)CO)C[C@H]1C	inactive
Cc1noc(C)c1NC(=O)N(C)C[C@@H]1OCCCC[C@H](C)Oc2ccc(NS(=O)(=O)c3cccs3)cc2C(=O)N([C@@H](C)CO)C[C@H]1C	inactive
O=S(=O)(NCC[C@@H]1CC[C@@H](NS(=O)(=O)c2cccc(Cl)c2)[C@H](CO)O1)c1cccc(F)c1	inactive
O=C(C[C@@H]1CC[C@H]2[C@@H](COC[C@@H](O)CN2S(=O)(=O)c2ccccc2)O1)N[C@@H]1CCN(Cc2ccccc2)C1	inactive
O=C(C[C@H]1CC[C@H]2[C@@H](COC[C@H](O)CN2S(=O)(=O)c2ccc(F)cc2)O1)NCc1ccncn1	inactive
CSCc1nc(=O)cc(C(=O)O)[nH]1	inactive
C[C@@H]1CCCCO[C@@H](CN(C)Cc2ccccc2)[C@H](C)CN([C@H](C)CO)C(=O)c2cc(NC(=O)c3ccncc3)ccc2O1	inactive
C[C@@H]1CN([C@H](C)CO)C(=O)Cc2cc(NC(=O)CCN3CCOCC3)ccc2O[C@@H]1CN(C)S(=O)(=O)c1cccs1	inactive
Cc1ccc(S(=O)(=O)N2C[C@H](O)COC[C@H]3O[C@@H](CC(=O)NCCCN(C)C)CC[C@@H]32)cc1	inactive
COc1cccc2c1C(=O)c1c(O)c3c(c(O)c1C2=O)C[C@@](O)(C(C)=O)C[C@@H]3O[C@H]1C[C@H](N)[C@H](O)[C@H](C)O1	active
COc1ccc(NC(=O)Nc2ccc3c(c2)C(=O)N([C@@H](C)CO)C[C@H](C)[C@H](CN(C)Cc2ccc(C(=O)Nc4ccccc4N)cc2)O3)cc1	inactive
COc1ccc(C#Cc2ccc3c(c2)[C@]2(C(=O)N3)[C@H](c3ccc(O)cc3)N3[C@H](c4ccccc4)[C@H](c4ccccc4)OC(=O)[C@H]3[C@@H]2C(=O)O)cc1	inactive

Test system: HepG2
Experiment: cytotoxicity call (relative viability < 0.9)
Details: 10 µM

SMILES	cytotoxicity call
CC(C)C[C@H](NC(=O)[C@H](CCCCN)NC(=O)CNC(=O)[C@H](CC(C)C)NC(=O)[C@@H](NC(=O)[C@@H]1CSSC[C@H](N)C(=O)N[C@@H](CO)C(=O)N[C@@H](CC(N)=O)C(=O)N[C@@H](CC(C)C)C(=O)N[C@@H](CO)C(=O)N[C@@H]([C@@H](C)O)C(=O)N1)C(C)C)C(=O)N[C@@H](CO)C(=O)N[C@@H](CCC(N)=O)C(=O)N[C@@H](CCC(=O)O)C(=O)N[C@@H](CC(C)C)C(=O)N[C@@H](Cc1c[nH]cn1)C(=O)N[C@@H](CCCCN)C(=O)N[C@@H](CC(C)C)C(=O)N[C@@H](CCC(N)=O)C(=O)N[C@H](C(=O)N[C@@H](Cc1ccc(O)cc1)C(=O)N1CCC[C@H]1C(=O)N[C@@H](CCCNC(=N)N)C(=O)N[C@H](C(=O)N[C@@H](CC(=O)O)C(=O)N[C@H](C(=O)NCC(=O)N[C@@H](C)C(=O)NCC(=O)N[C@H](C(=O)N1CCC[C@H]1C(N)=O)[C@@H](C)O)C(C)C)[C@@H](C)O)[C@@H](C)O	inactive
C[C@@H]1CN([C@@H](C)CO)S(=O)(=O)c2ccc(/C=C/c3ccccc3)cc2O[C@H]1CN(C)C(=O)CN1CCOCC1	inactive
C=CCOC(=O)[C@H]1[C@@H]2C(=O)O[C@@H](c3ccccc3)[C@@H](c3ccccc3)N2[C@@H](c2ccc(OCCOC(=O)[C@@H]3C[C@@H]4C(=O)N[C@@H](CC(C)C)C(=O)N4[C@@H]3c3ccc(O)cc3)cc2)[C@]12C(=O)Nc1ccc(I)cc12	inactive
C[C@@H]1CCCCO[C@@H](CN(C)S(=O)(=O)c2cn(C)cn2)[C@H](C)CN([C@@H](C)CO)C(=O)c2cc(NS(=O)(=O)c3cccs3)ccc2O1	inactive
C[C@@H]1CCCCO[C@@H](CN(C)Cc2ccc(C(F)(F)F)cc2)[C@H](C)CN([C@H](C)CO)C(=O)c2cc(NC(=O)Nc3ccc4c(c3)OCO4)ccc2O1	active
COc1ccc(NC(=O)N(C)C[C@H]2OCCCC[C@H](C)Oc3ccc(NS(=O)(=O)c4ccc(C)cc4)cc3C(=O)N([C@H](C)CO)C[C@@H]2C)cc1	inactive
NC(=O)c1c(Cl)ncc2c1NCC2	inactive
Cc1sc2ncnc(N3CCC[C@@H](Cn4cc(C(C)(C)N)nn4)C3)c2c1C	inactive
Cc1ccc(S(=O)(=O)Nc2cccc3c2O[C@H](CN(C)S(=O)(=O)c2ccccc2)[C@@H](C)CN([C@H](C)CO)C3=O)cc1	inactive
COc1cccc(NC(=O)N[C@@H]2CC[C@@H](CC(=O)N3CCOCC3)O[C@@H]2CO)c1	inactive
NCCc1ccn[nH]1	inactive
C[C@H](CO)N1C[C@H](C)[C@H](CN(C)S(=O)(=O)c2ccccc2F)Oc2cc(-c3ccncc3)ccc2S1(=O)=O	inactive
C[C@H]1CN([C@@H](C)CO)C(=O)c2cc(NC(=O)CCCN(C)C)ccc2O[C@H]1CN(C)S(=O)(=O)c1cccs1	inactive
COc1ccc(S(=O)(=O)Nc2ccc3c(c2)C(=O)N([C@H](C)CO)C[C@H](C)[C@H](CN(C)Cc2ccccc2)OCCCC[C@H](C)O3)cc1	inactive
OC1(c2ccc(Cl)c(C(F)(F)F)c2)CCN(CCCC(c2ccc(F)cc2)c2ccc(F)cc2)CC1	active
C[C@H](CO)N1C[C@H](C)[C@H](CN(C)S(C)(=O)=O)OCCCC[C@H](C)Oc2ccc(NS(=O)(=O)c3ccccc3)cc2C1=O	inactive
COc1ccc(CN(C)C[C@H]2OCCCC[C@@H](C)Oc3ccc(NS(=O)(=O)c4c(C)noc4C)cc3C(=O)N([C@H](C)CO)C[C@H]2C)cc1	inactive
CCS(=O)(=O)Nc1ccc2c(c1)C(=O)N(C)[C@@H]1CC[C@@H](CC(=O)NCCCN3CCOCC3)O[C@H]1CO2	inactive

SMILES	cytotoxicity call
N=C(N)SCc1ccc(B(O)O)cc1	inactive
CC1(C)SC2C(NC(=O)C(C(=O)[O-])c3ccccc3)C(=O)N2C1C(=O)[O-].[Na+].[Na+] (stereo not given)	inactive
Cc1noc(C)c1S(=O)(=O)Nc1ccc2c(c1)C(=O)N([C@H](C)CO)C[C@H](C)[C@H](CN(C)Cc1ccc(C(F)(F)F)cc1)OCCCC[C@H](C)O2	inactive
C[C@H](CO)N1C[C@H](C)[C@@H](CN(C)CC2CCCCC2)Oc2c(NC(=O)CCCCCC(=O)Nc3ccccc3N)cccc2C1=O	inactive
C[C@H](CO)N1C[C@H](C)[C@H](CN(C)Cc2ccc(C(F)(F)F)cc2)Oc2ccc(NC(=O)Nc3ccc(C(F)(F)F)cc3)cc2C1=O	active
NNc1ccc2nncn2n1	inactive
COC(=O)c1ccc2c(c1)no[n+]2[O-]	inactive
COc1ccc(CN(C)C[C@@H]2Oc3c(NC(=O)c4cc(C)nn4C)cccc3C(=O)N([C@@H](C)CO)C[C@H]2C)cc1	inactive
COC1CC(OC2C(C)=CCC3CC(CC4(CCC(C)C(C5CCCCC5)O4)O3)OC(=O)C3C=C(C)C(=NO)C4OCC(=CC=CC2C)C34O)OC(C)C1O (stereo not given)	active
CCCNC(=O)N(C)C[C@H]1Oc2cc(-c3ccc(C)cc3)ccc2S(=O)(=O)N([C@H](C)CO)C[C@@H]1C	inactive
CNC[C@@H]1OCCCC[C@H](C)Oc2ccc(NS(=O)(=O)c3c(C)noc3C)cc2C(=O)N([C@@H](C)CO)C[C@H]1C	inactive
Cc1noc(C)c1NC(=O)N(C)C[C@@H]1OCCCC[C@H](C)Oc2ccc(NS(=O)(=O)c3cccs3)cc2C(=O)N([C@@H](C)CO)C[C@H]1C	inactive
O=S(=O)(NCC[C@@H]1CC[C@@H](NS(=O)(=O)c2cccc(Cl)c2)[C@H](CO)O1)c1cccc(F)c1	inactive
O=C(C[C@@H]1CC[C@H]2[C@@H](COC[C@@H](O)CN2S(=O)(=O)c2ccccc2)O1)N[C@@H]1CCN(Cc2ccccc2)C1	inactive
O=C(C[C@H]1CC[C@H]2[C@@H](COC[C@H](O)CN2S(=O)(=O)c2ccc(F)cc2)O1)NCc1ccncn1	inactive
CSCc1nc(=O)cc(C(=O)O)[nH]1	inactive
C[C@@H]1CCCCO[C@@H](CN(C)Cc2ccccc2)[C@H](C)CN([C@H](C)CO)C(=O)c2cc(NC(=O)c3ccncc3)ccc2O1	inactive
C[C@@H]1CN([C@H](C)CO)C(=O)Cc2cc(NC(=O)CCN3CCOCC3)ccc2O[C@@H]1CN(C)S(=O)(=O)c1cccs1	inactive
